Publication PMC10170197 (Open Biology, 2023)

Tests used:
GFP-Caprin-1^356–386 = target: T1, GFP-Caprin-1^356–386 (human); assay: BLI; GFP-USP10^1–28 / GFP-Caprin-1^356–386 (WT and mutants) amine-coupled on AR2G sensors, NTF2 dimer in solution; 25/25 mM HEPES/MOPS pH 7.4, 150 mM NaCl, 1% glycerol, 0.05% Tween-20; apparent EC50 from pseudo-equilibrium levels; WT and mutant surfaces compared at one NTF2 concentration in a second set; conditions: both partners purified
T1 construct: source: E. coli BL21 T7 Express, purified (Strep-Tactin, TEV cleavage, Superdex 75); not shown: twin-Strep-tag-II, N-terminal, cleaved; GFP, N-terminal, kept

GFP-USP10^1–28 = GFP-USP10^1–28 (UniProt Q14694 1-28); assay: as above; conditions: both partners purified
Sequence of GFP-USP10^1–28 (Q14694 1-28): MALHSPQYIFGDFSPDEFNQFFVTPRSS

Sequence of GFP-Caprin-1^356–386 (chain, as listed by the source): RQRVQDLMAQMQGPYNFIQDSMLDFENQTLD

- EC50 (GFP-Caprin-1^356–386): 180 ± 110 nM
- EC50 (GFP-USP10^1–28): 20 ± 10 nM
B1: G3BP1-NTF2 ([…]) (domain or fragment)
chain: not shown
notes: G3BP1, NTF2-like domain, […]; Purified as a dimer; also called G3BP1-NTF2-WT; NTF2-WT; source: E. coli, purified (IMAC, Superdex 75 SEC, TEV cleavage, IMAC flow-through, SEC)
